# The full ranking holds about 81,000 sequences; the median of “one-hybrid fitness for binding NBS DNA” is about -0.1, and the highest 2% start at about 0.36. The list shows a part of the results.
# B1: Caulobacter ParB omega fusion; a variant is named by its letters at X, in order, B8GW30 (parent)
# chain: MESVVVGEPGMSEGRRGLGRGLSALLGEVDAAPAQAPGEQLGGSREAPIEILQRNPDQPRRTFREEDLEDLSNSIREKGVLQPILVRPSPDTAGEYQIVAGERAWRAAQRAGLKTVPIMVRELDDLAVLEIGIIENVQRADLNVLEEALSYKVLMEKFERTQENIAQTIGKSXSHVANXMRLLXLPDEVQSYLVSGELTAXHARAIAAAADPVALAKQIIEGGLSVRETEALARKAPNLSAGKSKGGRPPRVKDTDTQALESDLSSVLGLDVSIDHRGSTGTLTITYATLEQLDDLCNRLTRGI
# Variants of: B1
# Experiment: one-hybrid fitness for binding NBS DNA (the Noc-binding site; scaled: cognate 1, non-cognate 0); higher = stronger binding
# Conditions: with NBS DNA site
# Procedure, shortened: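 Values were rescaled so that cognate is 1 and non-cognate is 0. Each is a fitness, the log change in a variant's read ratio to wild type from Illumina reads of plasmids before and after selection, with three replicate libraries pooled and variants under 10 reads dropped. Selection of the Caulobacter ParB libraries, four specificity codons randomised, used E. coli USO with a HIS3 reporter, site 19 bp from the promoter, on M9-minus-histidine with 0.1 mM IPTG and 5 mM 3-AT for 48 hours at 37°C.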
row,Variant,one-hybrid fitness for binding NBS DNA
1,EEYA,≤ 0.2
2,GNTK,≤ 0.2
3,VNAL,≤ 0.2
4,HPNN,≤ 0.2
5,IRTQ,≤ 0.2
6,LHVN,≤ 0.2
7,CCYS,≤ 0.2
8,YRQS,≤ 0.2
9,TQVP,≤ 0.2
10,EPNC,≤ 0.2
11,YGQG,≤ 0.2
12,TVHC,≤ 0.2
13,WGLF,≤ 0.2
14,NTEY,≤ 0.2
15,RGFD,≤ 0.2
16,SIMG,≤ 0.2
17,RSQL,≤ 0.2
18,TNEG,≤ 0.2
19,RCEL,≤ 0.2
20,MRPK,≤ 0.2
21,AGII,≤ 0.2
22,TRSF,≤ 0.2
23,FTHT,≤ 0.2
24,TVNC,≤ 0.2

row,Variant,one-hybrid fitness for binding NBS DNA
1,PCPP,≤ 0.2
2,ALYM,≤ 0.2
3,AGFS,≤ 0.2
4,SLGM,≤ 0.2
5,DEMR,≤ 0.2
6,GNQG,≤ 0.2
7,GRIF,≤ 0.2
8,PTGI,≤ 0.2
9,YHIF,≤ 0.2
10,FWMR,≤ 0.2
11,SFLY,≤ 0.2
12,SYWS,≤ 0.2
13,QLGF,≤ 0.2
14,RDNG,≤ 0.2
15,IQFG,≤ 0.2
16,NPKE,≤ 0.2
17,YWIC,≤ 0.2
18,MQQW,≤ 0.2
19,PCLY,≤ 0.2
20,FSMP,≤ 0.2
21,SFSC,≤ 0.2
22,PTKL,≤ 0.2
23,FAIR,≤ 0.2
24,PTWC,≤ 0.2

row,Variant,one-hybrid fitness for binding NBS DNA
1,TAVC,≤ 0.2
2,RIHV,≤ 0.2
3,HQRY,≤ 0.2
4,AHDS,≤ 0.2
5,RIQV,≤ 0.2
6,EIVR,≤ 0.2
7,LYEW,≤ 0.2
8,QYIC,≤ 0.2
9,DQIS,≤ 0.2
10,DPKN,≤ 0.2
11,TPAH,≤ 0.2
12,PLYV,≤ 0.2
13,DISM,≤ 0.2
14,PHKC,≤ 0.2
15,RAPI,≤ 0.2
16,KLRH,≤ 0.2
17,PQAS,≤ 0.2
18,PSCR,≤ 0.2
19,NESG,≤ 0.2
20,RHRP,≤ 0.2
21,RPKW,≤ 0.2
22,RQHR,0.476
23,HCMR,≤ 0.2
24,GPST,≤ 0.2

row,Variant,one-hybrid fitness for binding NBS DNA
1,REMW,≤ 0.2
2,HGMA,≤ 0.2
3,ETRG,≤ 0.2
4,NNAN,≤ 0.2
5,FLGY,≤ 0.2
6,PCIG,≤ 0.2
7,QQVN,≤ 0.2
8,NKPM,≤ 0.2
9,HHQC,≤ 0.2
10,RQSN,≤ 0.2
11,SPAN,≤ 0.2
12,LCTI,≤ 0.2
13,MTFM,≤ 0.2
14,QHTH,≤ 0.2
15,QAWG,≤ 0.2
16,GSFL,≤ 0.2
17,VQDY,≤ 0.2
18,VKTV,≤ 0.2
19,SCAV,≤ 0.2
20,ATIL,≤ 0.2
21,VMLG,≤ 0.2
22,MGSR,≤ 0.2
23,PLQD,≤ 0.2
24,RNGY,≤ 0.2

row,Variant,one-hybrid fitness for binding NBS DNA
1,WEER,≤ 0.2
2,TRDI,≤ 0.2
3,RFSS,0.231
4,MFLC,≤ 0.2
5,PFMV,≤ 0.2
6,ISCD,≤ 0.2
7,ARKP,≤ 0.2
8,CQFR,≤ 0.2
9,DENV,≤ 0.2
10,GLNT,≤ 0.2
11,EFFR,≤ 0.2
12,TFDT,≤ 0.2
13,WSPC,≤ 0.2
14,LHWI,≤ 0.2
15,TLYV,≤ 0.2
16,WYDG,≤ 0.2
17,KMAW,≤ 0.2
18,NGLT,≤ 0.2
19,WNTH,≤ 0.2
20,TSHN,≤ 0.2
21,HRMG,≤ 0.2
22,ANWT,≤ 0.2
23,WNLR,≤ 0.2
24,LCYA,≤ 0.2

row,Variant,one-hybrid fitness for binding NBS DNA
1,KCCS,≤ 0.2
2,ESSG,≤ 0.2
3,MKIV,≤ 0.2
4,RWMW,≤ 0.2
5,IVKQ,≤ 0.2
6,TSNS,≤ 0.2
7,FTDC,≤ 0.2
8,KAHG,≤ 0.2
9,PYCL,≤ 0.2
10,RWHD,≤ 0.2
11,KNMS,≤ 0.2
12,QQYQ,≤ 0.2
13,PHAI,≤ 0.2
14,PAIR,≤ 0.2
15,HANN,≤ 0.2
16,GFPL,≤ 0.2
17,HWPS,≤ 0.2
18,AIET,≤ 0.2
19,CCWS,≤ 0.2
20,KVIS,≤ 0.2
21,KYWG,≤ 0.2
22,RDDC,≤ 0.2
23,NNKA,≤ 0.2
24,GRYD,≤ 0.2

row,Variant,one-hybrid fitness for binding NBS DNA
1,CIDT,≤ 0.2
2,VFSY,≤ 0.2
3,LTLT,≤ 0.2
4,TAHS,≤ 0.2
5,NCEV,≤ 0.2
6,CLNS,≤ 0.2
7,MQNR,≤ 0.2
8,YKHC,≤ 0.2
9,SAVV,≤ 0.2
10,RPFR,≤ 0.2
11,HYTI,≤ 0.2
12,HFFL,≤ 0.2
13,QMHH,0.221
14,WKSR,≤ 0.2
15,AKLD,≤ 0.2
16,TMYP,≤ 0.2
17,LERG,≤ 0.2
18,EQHS,≤ 0.2
19,NTLE,≤ 0.2
20,THMT,≤ 0.2
21,QNDW,≤ 0.2
22,CTDG,≤ 0.2
23,SVSI,≤ 0.2
24,HWAY,≤ 0.2

row,Variant,one-hybrid fitness for binding NBS DNA
1,KRSN,≤ 0.2
2,LCYN,≤ 0.2
3,TLSE,≤ 0.2
4,RKWF,≤ 0.2
5,HAVS,≤ 0.2
6,QRKG,0.485
7,HRTG,≤ 0.2
8,VGPA,≤ 0.2
9,HYRD,≤ 0.2
10,ASQR,≤ 0.2
11,NITT,≤ 0.2
12,YVMI,≤ 0.2
13,EYGG,≤ 0.2
14,AISC,≤ 0.2
15,PKRT,≤ 0.2
16,YFYT,≤ 0.2
17,SERL,≤ 0.2
18,WSSC,≤ 0.2
19,QFRK,0.227
20,VYPA,≤ 0.2
21,KDNG,≤ 0.2
22,RTME,≤ 0.2
23,IYMG,≤ 0.2
24,YHFS,≤ 0.2

row,Variant,one-hybrid fitness for binding NBS DNA
1,SDLY,≤ 0.2
2,NRRH,≤ 0.2
3,SMTR,≤ 0.2
4,TPTN,≤ 0.2
5,RGAF,≤ 0.2
6,FVMC,≤ 0.2
7,LRWE,≤ 0.2
8,SEYC,≤ 0.2
9,LISE,≤ 0.2
10,MDWP,≤ 0.2
11,ARFL,≤ 0.2
12,VVAR,≤ 0.2
13,LHDG,≤ 0.2
14,RSTI,≤ 0.2
15,DTSS,≤ 0.2
16,FTNR,≤ 0.2
17,RSGK,≤ 0.2
18,RPAK,≤ 0.2
19,ASKI,≤ 0.2
20,WHLR,≤ 0.2
21,VLAW,≤ 0.2
22,GGRS,≤ 0.2
23,NPEV,≤ 0.2
24,VFLE,≤ 0.2

row,Variant,one-hybrid fitness for binding NBS DNA
1,DRMA,≤ 0.2
2,AALF,≤ 0.2
3,RCIE,≤ 0.2
4,SKKF,≤ 0.2
5,YLMS,≤ 0.2
6,MAFT,≤ 0.2
7,QAND,≤ 0.2
8,PNKT,≤ 0.2
9,PVSM,≤ 0.2
10,CLAM,≤ 0.2
11,VNPG,≤ 0.2
12,GIRT,≤ 0.2
13,ITPL,≤ 0.2
14,HEQG,≤ 0.2
15,MWAC,≤ 0.2
16,ERPT,≤ 0.2
17,KQAG,≤ 0.2
18,KGDR,≤ 0.2
19,RRPG,≤ 0.2
20,QIFG,≤ 0.2
21,YIFR,≤ 0.2
22,YMPS,≤ 0.2
23,SGYA,≤ 0.2
24,LKFM,≤ 0.2

row,Variant,one-hybrid fitness for binding NBS DNA
1,RIGW,≤ 0.2
2,ELLG,≤ 0.2
3,ASVF,≤ 0.2
4,DYLW,≤ 0.2
5,PVVG,≤ 0.2
6,QLPA,≤ 0.2
7,RLHC,≤ 0.2
8,PWDR,≤ 0.2
9,RTNV,≤ 0.2
10,NCEY,≤ 0.2
11,MAKY,≤ 0.2
12,RTRI,≤ 0.2
13,EMKV,≤ 0.2
14,HLCV,≤ 0.2
15,TACA,≤ 0.2
16,QSWC,≤ 0.2
17,APGE,≤ 0.2
18,MSDN,≤ 0.2
19,KQKW,≤ 0.2
20,TWYG,≤ 0.2
21,NWCT,≤ 0.2
22,RQGC,≤ 0.2
23,MVAG,≤ 0.2
24,QMSV,≤ 0.2

row,Variant,one-hybrid fitness for binding NBS DNA
1,QCIA,0.25
2,TKRT,≤ 0.2
3,DHMR,≤ 0.2
4,HRKG,≤ 0.2
5,GMMC,≤ 0.2
6,TCPP,≤ 0.2
7,QLEA,≤ 0.2
8,SANN,≤ 0.2
9,CDLT,≤ 0.2
10,KKTN,≤ 0.2
11,HADR,≤ 0.2
12,DCRR,0.416
13,NGSR,≤ 0.2
14,RWSP,≤ 0.2
15,AINM,≤ 0.2
16,THVV,≤ 0.2
17,AFSC,≤ 0.2
18,TLYL,≤ 0.2
19,IAPV,≤ 0.2
20,CKTR,≤ 0.2
21,YCEC,≤ 0.2
22,SSKN,≤ 0.2
23,IGMS,≤ 0.2
24,TDWP,≤ 0.2

row,Variant,one-hybrid fitness for binding NBS DNA
1,YPDG,≤ 0.2
2,WASP,≤ 0.2
3,AIRR,≤ 0.2
4,VRSQ,≤ 0.2
5,MILI,≤ 0.2
6,EDIS,≤ 0.2
7,RQCC,≤ 0.2
8,VFKW,≤ 0.2
9,CGAE,0.595
10,PDTR,≤ 0.2
11,WPVC,≤ 0.2
12,LRGA,≤ 0.2
13,SIHV,≤ 0.2
14,ANQR,≤ 0.2
15,WFTR,≤ 0.2
16,VGQM,≤ 0.2
17,PKYG,≤ 0.2
18,EIEL,≤ 0.2
